Results from PMC9879932.
Positions count from the first letter of the chain named. Names and notes keep the numbering of the source. Results are given in words; binding and its absence hold for the method and conditions named. Binding seen in cells or lysates may run through a third protein. Some results given as binding are weak or reduced against the parent protein; the word gives no strength. Tags and fused reporters may be left off the sequences shown.

The chains behind the UniProt entries cited, without tags or fusion partners.
UniProt Q12798: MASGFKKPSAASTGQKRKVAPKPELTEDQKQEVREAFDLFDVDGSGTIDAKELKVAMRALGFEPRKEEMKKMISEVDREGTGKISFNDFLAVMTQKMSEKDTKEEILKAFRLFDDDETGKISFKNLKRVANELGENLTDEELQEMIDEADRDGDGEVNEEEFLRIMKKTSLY
UniProt P41208: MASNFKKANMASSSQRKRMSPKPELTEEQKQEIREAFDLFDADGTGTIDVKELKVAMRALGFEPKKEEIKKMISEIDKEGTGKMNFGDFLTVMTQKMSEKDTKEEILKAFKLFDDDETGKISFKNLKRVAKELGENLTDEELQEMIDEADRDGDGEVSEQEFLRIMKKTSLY

B1: GFP-USP49Long (pCDH-GFP-USP49Long) (enzyme, UniProt Q70CQ1 1-688)
chain: MDRCKHVGRLRLAQDHSILNPQKWCCLECATTESVWACLKCSHVACGRYIEDHALKHFEETGHPLAMEVRDLYVFCYLCKDYVLNDNPEGDLKLLRSSLLAVRGQKQDTPVRRGRTLRSMASGEDVVLPQRAPQGQPQMLTALWYRRQRLLARTLRLWFEKSSRGQAKLEQRRQEEALERKKEEARRRRREVKRRLLEELASTPPRKSARLLLHTPRDAGPAASRPAALPTSRRVPAATLKLRRQPAMAPGVTGLRNLGNTCYMNSILQVLSHLQKFRECFLNLDPSKTEHLFPKATNGKTQLSGKPTNSSATELSLRNDRAEACEREGFCWNGRASISRSLELIQNKEPSSKHISLCRELHTLFRVMWSGKWALVSPFAMLHSVWSLIPAFRGYDQQDAQEFLCELLHKVQQELESEGTTRRILIPFSQRKLTKQVLKVVNTIFHGQLLSQVTCISCNYKSNTIEPFWDLSLEFPERYHCIEKGFVPLNQTECLLTEMLAKFTETEALEGRIYACDQCNSKRRKSNPKPLVLSEARKQLMIYRLPQVLRLHLKRFRWSGRNHREKIGVHVVFDQVLTMEPYCCRDMLSSLDKETFAYDLSAVVMHHGKGFGSGHYTAYCYNTEGGFWVHCNDSKLNVCSVEEVCKTQAYILFYTQRTVQGNARISETHLQAQVQSSNNDEGRPQTFS
B2: USP49Long^W158A (enzyme, UniProt Q70CQ1 1-688)
chain: B1 chain with W158A
B3: USP49Long^C262A (enzyme, UniProt Q70CQ1 1-688)
chain: B1 chain with C262A
B4: GFP-USP49Long (pEGFP-USP49Long) (enzyme, UniProt Q70CQ1 1-688)
chain: B1 chain

How the values were obtained:
Assay in all cases: co-IP; HEK-293T co-transfected with GFP, GFP-USP49Long or GFP-USP49Short (or USP49 mutants) and the FLAG-tagged partner; lysed 24 h later in co-IP buffer (150 mM NaCl, 20 mM Tris-HCl pH 7.4, 1% NP-40, 1 mM MgCl2) with Benzonase; immunoprecipitation with anti-FLAG, control IgG or anti-CETN3 on Dynabeads Protein G; western blot
USP44-FLAG-HA = biological target: T1, USP44-FLAG-HA (UniProt Q9H0E7)
T1 sequence: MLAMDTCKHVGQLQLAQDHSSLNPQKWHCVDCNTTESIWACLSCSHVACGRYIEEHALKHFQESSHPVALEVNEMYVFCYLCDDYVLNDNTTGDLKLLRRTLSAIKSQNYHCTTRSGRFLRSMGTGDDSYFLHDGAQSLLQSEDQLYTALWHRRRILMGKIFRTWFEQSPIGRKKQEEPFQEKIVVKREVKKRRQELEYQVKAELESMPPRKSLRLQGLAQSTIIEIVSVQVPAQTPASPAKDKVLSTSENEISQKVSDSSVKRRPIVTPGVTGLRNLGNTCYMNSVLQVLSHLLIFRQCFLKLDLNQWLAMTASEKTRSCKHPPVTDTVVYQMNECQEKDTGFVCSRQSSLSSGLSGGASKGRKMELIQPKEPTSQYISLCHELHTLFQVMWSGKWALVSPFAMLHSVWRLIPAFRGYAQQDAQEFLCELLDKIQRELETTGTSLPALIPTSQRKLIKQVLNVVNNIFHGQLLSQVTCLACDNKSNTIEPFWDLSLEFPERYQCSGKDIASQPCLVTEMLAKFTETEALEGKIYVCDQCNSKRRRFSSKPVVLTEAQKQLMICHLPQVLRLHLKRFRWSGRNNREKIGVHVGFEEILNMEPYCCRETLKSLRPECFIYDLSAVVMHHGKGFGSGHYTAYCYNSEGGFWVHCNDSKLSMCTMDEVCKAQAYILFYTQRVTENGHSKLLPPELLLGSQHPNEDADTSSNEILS

CETN1-FLAG (human) = CETN1-FLAG (human) (UniProt Q12798)
CETN2-FLAG (human) = CETN2-FLAG (human) (UniProt P41208)
CETN3-FLAG (human) = biological target: T2, CETN3-FLAG (human) (UniProt O15182)
T2 sequence: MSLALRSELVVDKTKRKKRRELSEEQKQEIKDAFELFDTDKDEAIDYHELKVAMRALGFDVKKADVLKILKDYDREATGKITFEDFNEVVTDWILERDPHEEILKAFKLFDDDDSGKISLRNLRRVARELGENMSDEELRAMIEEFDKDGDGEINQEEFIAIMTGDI

RPN1-FLAG (ribophorin 1) = biological target: T3, RPN1-FLAG (ribophorin 1) (UniProt P04843)
T3 sequence: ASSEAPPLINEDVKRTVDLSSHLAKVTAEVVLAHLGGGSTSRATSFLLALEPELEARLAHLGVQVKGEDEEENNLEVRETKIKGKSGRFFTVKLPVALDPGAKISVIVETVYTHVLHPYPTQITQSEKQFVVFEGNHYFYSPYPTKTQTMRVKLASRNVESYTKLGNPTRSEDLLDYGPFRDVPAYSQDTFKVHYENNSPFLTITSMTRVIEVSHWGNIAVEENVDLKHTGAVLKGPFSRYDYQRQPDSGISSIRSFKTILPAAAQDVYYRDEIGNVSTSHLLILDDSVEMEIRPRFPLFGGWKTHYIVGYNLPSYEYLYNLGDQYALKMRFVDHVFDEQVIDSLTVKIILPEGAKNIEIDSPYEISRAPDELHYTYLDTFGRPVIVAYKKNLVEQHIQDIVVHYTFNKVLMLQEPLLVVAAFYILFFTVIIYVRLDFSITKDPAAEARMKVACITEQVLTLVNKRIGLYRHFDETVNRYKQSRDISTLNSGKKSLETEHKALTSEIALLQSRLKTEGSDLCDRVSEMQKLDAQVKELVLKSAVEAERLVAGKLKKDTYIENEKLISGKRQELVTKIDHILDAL

Row | binding (USP44-FLAG-HA) | binding (CETN1-FLAG (human)) | binding (CETN2-FLAG (human)) | binding (CETN3-FLAG (human)) | binding (RPN1-FLAG (ribophorin 1)) | Binder
1 | binds | binds | binds | binds | – | B1
2 | – | no binding | no binding | binds | – | B2
3 | – | binds | binds | binds | – | B3
4 | – | – | – | – | binds | B4
